Results published in PubChem BioAssay AID686978 (National Center for Advancing Translational Sciences (NCATS), 2013).
Among all 420,000 compounds or so, about 64,000 (15%) were called active. The shares of active, inactive and inconclusive entries below differ from those in the screen. The call rests on the fitted dose curve; in most records, active means well fitted inhibition curve with a large enough effect; inconclusive means small, poorly fitted or top-dose-only effect; inactive means flat fitted curve, though single readings scatter. Potencies of inconclusive entries are left out as doubtful fits.
On the % scale 0 is the no-effect control and ±100 the full control effect; potency means the concentration at half of the fitted maximal effect; tags describe the fitted curve by direction and shape.

Assay: qHTS for Inhibitors of human tyrosyl-DNA phosphodiesterase 1 (TDP1): qHTS in cells in absence of CPT; further: nearly all actives have a fitted effect of over 55% in size
Details: DT40 Tdp1-/- hTDP1 cells, no CPT, ATP luminescence, 48 h; activity change, negative = growth inhibition: at 46.2 µM (top of the series) unless noted
In short: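 Readout: luminescence from CellTiter-Glo after 30 min in the dark at RT. Cells: DT40 Tdp1-/- with stable hTDP1, 400/well. Exposure: compounds alone, ≥48 hr, 37 °C.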
For `COc1cc2c(cc1NC(=O)COc1ccc3ccccc3c1)oc1ccccc12`, the Potency was inconclusive [inhibitor, single point]. In the case of `N=c1c(C(=O)NCCN2CCOCC2)cc2c(=O)n3ccccc3nc2n1CCc1ccccc1`, the Potency is reported as active: 23.1 µM. For `CCc1sc(NC(=O)C(C)C)nc1-c1ccccc1`, the Potency was “inactive”. In the case of `Cn1c(=O)c2c(nc(SCCN3CCOCC3)n2Cc2ccccc2)n(C)c1=O`, the Potency is reported as “inactive”. For `COc1ccccc1NC(=O)CSCc1cc(=O)c2c(C)cc(C)cc2[nH]1`, the Potency was inconclusive [inhibitor, single point]. In the case of `O=C(CSc1cc(Cl)ccc1Cl)NCC(=O)Nc1ccc(F)c(F)c1F`, the Potency is reported as inconclusive [inhibitor, single point]. For `O=C(CN1CCN(C2CCCCC2)CC1)Nc1ccc(Br)cc1`, the Potency was “inactive”. For `C1CCN(c2c3c(nc4nnnn24)CCCC3)CC1`, the Potency was “inactive”. For `C/C(=C(\CCOP(=O)(O)O)SC(=O)c1ccccc1)N(C=O)Cc1cnc(C)nc1N`, the Potency was “inactive”. For `Nn1c(SCC(=O)NC2CCS(=O)(=O)C2)nc2scc(-c3ccccc3)c2c1=O` (stereo not drawn), the Potency was “inactive”. In the case of `CNC(=S)N1N=C2c3ccccc3CCC2C1c1ccccc1Cl` (stereo not drawn), the Potency is reported as inconclusive [inhibitor, single point]. With `COc1ccc(-n2nnnc2SCC(=O)Nc2ccccc2F)cc1` the activity change, negative = growth inhibition was inconclusive: -31.6% [inhibitor]. For `CCOC(=O)C1=C(C)Nc2nc(C)nn2C1c1ccc(C)cc1` (stereo not drawn), the Potency was “inactive”. In the case of `O=C(NNC(=O)C1CC1c1ccccc1)Nc1cccc(Cl)c1` (stereo not drawn), the Potency is reported as “inactive”. With `COCCNC(=O)/C(C#N)=C/c1ccc(OCc2ccccc2)cc1` the Potency was inconclusive [inhibitor, single point]. With `O=C(Nc1ccccc1)Nc1nnc(COc2ccccc2F)s1` the Potency was active: 10.3 µM. With `CSc1ccc(C(=O)N2CCC(n3nccc3NC(=O)C3CC3)CC2)cc1` the Potency was “inactive”. In the case of `CCOC(=O)C1CCCN(C(=O)COc2ccc(S(=O)(=O)N(CC)c3ccccc3)cc2)C1` (stereo not drawn), the activity change, negative = growth inhibition is reported as inconclusive: -31.7% [inhibitor]. With `Fc1c(F)c(F)c(CSc2nc3ccccc3[nH]2)c(F)c1F` the Potency was “inactive”. With `CCOC(=O)N1CCC(NC(=O)CCc2nc(-c3ccccc3F)no2)CC1` the Potency was inconclusive [inhibitor, single point]. With `O=C(c1cc(-c2ccc(Cl)s2)nc2ccccc12)N1CCCC1` the Potency was inconclusive [inhibitor, partial curve]. For `O=C(COc1ccccc1)Nc1sc2c(c1C(=O)NCc1cccnc1)CCCC2`, the Potency was inconclusive [inhibitor, single point]. For `COC(=O)[C@@]12CCCCN1[C@H](c1ccc(-c3ccc(OC)cc3)cc1)[C@@H]1C(=O)N(C)C(=O)[C@@H]12`, the Potency was active: 20.6 µM. In the case of `CCOc1ccc(OCCC(=O)OCC(=O)N(CC)c2c(N)n(Cc3ccccc3)c(=O)[nH]c2=O)cc1`, the Potency is reported as inconclusive [inhibitor, partial curve]. With `Cc1cc2nc3c(=O)n(C)c(=O)n(C)c3nc2cc1N=CN(C)C` the Potency was “inactive”. With `Cc1nonc1NC(=O)c1ccccc1Br` the Potency was “inactive”. With `O=C(Nc1ccc(Cl)cc1)N(C1=NCCC1)c1ccc(OC(F)F)cc1` the Potency was inconclusive [inhibitor, partial curve]. In the case of `COc1ccc(-c2nc(SCC(=O)NCCCc3ccccc3)n[nH]2)cc1`, the Potency is reported as active: 20.6 µM. In the case of `COCCN(C(=O)CNC(=O)c1ccco1)C(C(=O)NC1CCCC1)c1cccs1` (stereo not drawn), the Potency is reported as “inactive”. With `O=C(Nc1nccs1)c1cc(-c2ccccc2)nc2ccccc12` the Potency was inconclusive [inhibitor, single point]. With `CCCc1nc2oc3ccccc3c(=O)c2c(=O)n1-c1ccc(C)cc1` the Potency was inconclusive [inhibitor, partial curve]. For `O=C(CCNS(=O)(=O)c1ccc(Cl)cc1)N1CCN(Cc2ccccc2)CC1`, the Potency was “inactive”. For `COC(=O)c1ccc2nc(-c3ccc(C)cc3)c(Cc3ccc(OC)cc3C)n2c1`, the Potency was inconclusive [inhibitor, single point]. In the case of `CCCN(CC(=O)Nc1ccccc1C)C(=O)C1CC(=O)N(c2ccc(CC)cc2)C1` (stereo not drawn), the Potency is reported as “inactive”. With `CC(C)C(=O)Nc1nnc(CCN2CCCCC2)s1` the Potency was “inactive”. In the case of `O=C1CCC(C(=O)N(Cc2cccs2)C2(C(=O)NC3CCCCC3)CCCCC2)N1` (stereo not drawn), the activity change, negative = growth inhibition is reported as inconclusive: -33.4% [inhibitor]. For `Cc1ccc(NNC(=S)Nc2ccc(C(C)C)cc2)c(C)c1`, the Potency was active: 16.4 µM. In the case of `Nc1nc(=S)c2ncn(C3OC(CO)C(O)C3O)c2[nH]1` (stereo not drawn), the Potency is reported as active: 8.2 µM. For `CN(/N=C/c1cccnc1)c1cnc2ccccc2n1`, the Potency was inconclusive [inhibitor, partial curve]. With `Cn1cccc1-c1nc2ccccc2n1C` the Potency was “inactive”. In the case of `OCC1(Cc2cccc(F)c2)CCN(Cc2ccc3cccc(F)c3n2)CC1`, the Potency is reported as inconclusive [inhibitor, single point]. In the case of `CCn1cc(CN2CCC(C(=O)Nc3ccc(Oc4ccccc4F)cc3)CC2)c(C)n1`, the Potency is reported as active: 25.9 µM. With `CCC(C)c1ccccc1OCCn1c(CCNC(=O)C2CCCCC2)nc2ccccc21` (stereo not drawn) the Potency was inconclusive [inhibitor, single point]. In the case of `COc1ccc([N+](=O)[O-])cc1NCc1ccccc1`, the Potency is reported as inconclusive [inhibitor, single point]. For `O=c1c2cc(Cl)ccc2oc2nc3n(c(=O)c12)CCCS3`, the Potency was inconclusive [inhibitor, partial curve, poor fit]. With `Cc1ccc2occ(CC(=O)Nc3ccc(S(N)(=O)=O)cc3)c2c1` the Potency was “inactive”. In the case of `CCN(CC)CCCNC(=O)c1oc2c(c1C)-c1nn(Cc3ccc(Cl)cc3)cc1CC2`, the Potency is reported as active: 18.4 µM. In the case of `COc1ccc(-n2ccnc2SCC(=O)Nc2ccc(OC)cc2OC)cc1`, the Potency is reported as inconclusive [inhibitor, single point]. With `COc1ccc(NC(=O)CCc2c(C)nn(-c3ccc(N4CCOCC4)nn3)c2C)cc1Cl` the Potency was inconclusive [inhibitor, partial curve]. With `Cc1cc(N2CCCC2)nc2ccccc12` the Potency was inconclusive [inhibitor, single point]. In the case of `CC1CCCC(NC(=O)COC(=O)c2ccc(Cl)nc2)C1C` (stereo not drawn), the Potency is reported as “inactive”. With `C[C@H]1CN([C@@H](C)CO)C(=O)CCCn2nncc2CO[C@@H]1CN(C)Cc1cccc(C(=O)O)c1` the Potency was “inactive”. With `C[n+]1ccc(C(=O)Nc2ccccc2Cl)cc1` the Potency was “inactive”. With `Cc1ccc(N(CC(=O)NC(C)c2ccccc2)S(=O)(=O)c2c(C)noc2C)cc1` (stereo not drawn) the Potency was active: 16.4 µM. With `Cc1cccc(-c2noc(C3CC(=O)N(c4ccc5c(c4)OCCO5)C3)n2)c1` (stereo not drawn) the Potency was “inactive”. In the case of `CCCCCCN1N=C(C)C(C(=O)c2ccc(Cl)cc2)C1=O` (stereo not drawn), the Potency is reported as inconclusive [inhibitor, single point]. With `Cc1cccc(Cn2nc(C)cc2NC(=O)Cn2cc([N+](=O)[O-])cn2)c1` the Potency was inconclusive [inhibitor, single point]. With `CCOC(=O)C1CCCN(C(=O)c2cccc(NC(=O)C(CC)CC)c2)C1` (stereo not drawn) the Potency was “inactive”. In the case of `CCc1ccc(NC(=O)c2ccc(S(=O)(=O)NCc3cccnc3)cc2)cc1`, the Potency is reported as inconclusive [inhibitor, single point]. In the case of `CCC(CC)C(=O)Nc1cccc(/C(C)=N\NC(=O)c2ccc(C)s2)c1`, the Potency is reported as inconclusive [inhibitor, single point]. In the case of `Cc1cccc(C(C(=O)NC2CCCCC2)N(Cc2cccnc2)C(=O)c2csnn2)c1` (stereo not drawn), the Potency is reported as “inactive”. For `Cc1cc(OCC(=O)Nc2sc3c(c2C(N)=O)CCCC3)ccc1C(C)C`, the Potency was “inactive”. For `C/C(CCC1CC(C)OC1=O)=N\NC(N)=S` (stereo not drawn), the Potency was inconclusive [inhibitor, single point]. In the case of `COc1ccc(CCNC(=O)c2cc(C3CC3)nc3c2cnn3C(C)C)cc1`, the Potency is reported as active: 18.4 µM. With `CCOc1ccccc1OCCCC(=O)Nc1cccc(-n2cnnn2)c1C` the Potency was “inactive”. In the case of `CC1(c2nnc(-c3ccncc3)o2)CC(c2ccc(F)cc2)=NO1` (stereo not drawn), the Potency is reported as inconclusive [inhibitor, partial curve]. For `COc1ccc(O)c(-c2[nH]ncc2C(=O)c2cccc(C)c2)c1`, the Potency was “inactive”. In the case of `Cc1cc(C)c2cc3c(N)c(C(=O)N4CCOCC4)sc3nc2c1`, the Potency is reported as inconclusive [inhibitor, single point]. In the case of `Cc1ncoc1C(=O)Nc1ncc([N+](=O)[O-])s1`, the Potency is reported as inconclusive [inhibitor, partial curve, poor fit]. With `CCOC(=O)Cn1c(CN2CCN(C(c3ccccc3)c3ccccc3)CC2)nc2c1c(=O)n(C)c(=O)n2C` the Potency was active: 23.1 µM. In the case of `CC(=O)NNC(=O)c1ccncc1`, the Potency is reported as “inactive”. For `COc1ccc(-c2oc3c(c2C#CC2(O)CCCCC2)C(OC(C)=O)CCC3)cc1` (stereo not drawn), the Potency was inconclusive [inhibitor, single point]. With `Clc1cccc(CSc2nnc(-c3sccc3-n3cccc3)o2)c1` the Potency was inconclusive [inhibitor, partial curve]. In the case of `CN(C)c1ccc(/C=N/NC(=O)CNC(=O)c2ccco2)cc1`, the Potency is reported as “inactive”. With `Cc1ccc(NC(=O)Nc2ccccc2)cc1[N+](=O)[O-]` the Potency was inconclusive [inhibitor, single point]. In the case of `Cc1ccc(C(=O)CSc2ccccc2C(=O)O)cc1`, the Potency is reported as “inactive”. For `CCN(CC)CCn1c(SCC(=O)NCc2ccco2)nc2c(sc3ccccc32)c1=O`, the Potency was inconclusive [inhibitor, single point]. In the case of `O=C(NC1CCCCC1)NC1C2CC3CC(C2)CC1C3` (stereo not drawn), the Potency is reported as inconclusive [inhibitor, single point].
